# According to PubChem BioAssay AID463173 (ICCB-Longwood Screening Facility, Harvard Medical School, 2010):
# Out of some 52,000 compounds screened, about 4,300 (8.3%) were called active. Cut-off read from the data, not from the text of the source: active = survival mostly below about 52% (no sharp cut-off); inactive = mostly above about 56%. This is one part of the list.
# System: DeltatarO mutant
# Assay: S. aureus survival, RN4220 and DeltatarO strains – OD600, teichoic acid synthesis inhibitors, primary screen (AID 463173)
# Settings: S. aureus RN4220 wild type/DeltatarO growth, OD600, 18 h, active compounds read low, screened at 18.75 µg/mL (by protocol)
row,SMILES,survival
1,COc1ccc(C)cc1NC(=O)c1c(C(=O)Nc2cccc(C)c2C)sc2nc(C)cc(=O)n12,active: 61%
2,Cc1nnc(N2CCN(c3cccc(Cl)c3)CC2)c2c1nnn2Cc1ccc(F)cc1,inactive: 79%
3,CCn1c(=O)cc(SCC(=O)Nc2cc(Cl)ccc2OC)c2ccccc21,inactive: 67%
4,Cc1ccc(C(=O)Nc2nnc(S(=O)(=O)N(C)Cc3ccc(F)cc3)s2)cc1,inactive: 60%
5,CC1CCCN(c2nc(-c3ccccc3O)nc3ccccc23)C1 (stereo not given),active: -6%
6,CCOc1ccc(-n2c(C)nc3cc(C(=O)NCc4ccc(C)cc4)ccc32)cc1,inactive: 82%
7,CCOc1ccc2c(c1)c(=O)c(C(=O)c1ccc3c(c1)OCO3)cn2Cc1cccc(F)c1,inactive: 76%
8,COc1ccc(-n2ccnc(NCc3cccs3)c2=O)cc1,active: 20%
9,Cc1ccc2[nH]c(=O)c(CN(CCCO)C(=O)NC3CCCCC3)cc2c1,inactive: 95%
10,CCc1ccc(Cn2c(CNS(=O)(=O)c3ccc([N+](=O)[O-])cc3)nc3cccnc32)cc1,active: 8%
11,COCCCNC(=O)c1c(-c2ccccc2)c(-c2ccccc2)nn(C)c1=O,inactive: 50%
12,O=C(Nc1ccc2nc3n(c(=O)c2c1)CCCCC3)C(=O)Nc1ccccc1F,inactive: 57%
13,Cc1cccc(Nc2nn3c(=O)c4cc5c(cc4nc3s2)OCO5)c1,inactive: 116%
14,CCn1nc(C)c(CCN(C)C(=O)Nc2ccc(C)c(Cl)c2)c1C,inactive: 88%
15,COCCNC(=O)c1ccc(-n2c(-c3ccccc3)cc3c2CCC(C)C3)cc1 (stereo not given),inactive: 77%
16,Cc1ccc(C(=O)NCc2ccc3c(c2)CCN3C(=O)c2ccc(C)cc2)cc1,inactive: 83%
17,CCOC(=O)c1cc(-c2ccc(OC)c(S(=O)(=O)NC3CCCCC3)c2)on1,inactive: 89%
18,Cn1c(=O)c2c(nc(SCC(=O)N3CCCC3)n2C)n(C)c1=O,inactive: 89%
19,COc1ccc(CCNC(=O)CN2C(=O)COc3ccc(C)cc32)cc1OC,active: 45%
20,COc1ccccc1N(CC(=O)N1CCC(C)CC1)S(=O)(=O)c1ccc(C)cc1,inactive: 134%
21,N#Cc1cc(-c2ccc(Cl)cc2)no1,inactive: 97%
22,COc1ccc(CCNC(=O)c2ccc3c(c2)CCN3S(=O)(=O)c2ccccc2)cc1OC,inactive: 88%
23,CCOc1ccccc1NC(=O)Cn1c(=O)n(Cc2ccccc2)c(=O)c2c1c1cc(C)ccc1n2C,inactive: 90%
24,Cc1ccc(-n2ncc(C(=O)NCc3ccccc3)c2C2CCN(C(=O)OC(C)(C)C)CC2)cc1,inactive: 94%
25,Cc1cc(Nc2cccc(Cl)c2)nc2ccc(NC(=O)Cc3ccc(Cl)cc3)cc12,inactive: 105%
